# Results: PubChem BioAssay AID1468 (National Center for Advancing Translational Sciences (NCATS), 2008)
# In all, about 280,000 compounds went through this assay and about 1,100 (0.39%) were called active. Inconclusive means that the source gave no clear call. Such entries were picked first, then a sample of the others. Calls come from the whole dose curve; as a rule, active = well fitted inhibition curve with a large enough effect; inconclusive = small, poorly fitted or top-dose-only effect, or effect the other way; inactive = flat fitted curve, though single readings scatter. Potencies of inconclusive entries are left out as doubtful fits.
# Target: Microtubule-associated protein tau (Homo sapiens) (UniProt P10636)
# Assay: qHTS for Inhibitors of Tau Fibril Formation, Fluorescence Polarization; note: nearly all actives have a fitted effect of over 55% in size
# Conditions: K18 P301L tau heparin fibrillization, Alexa594 FP, 6 h; series mostly up to 57.7 µM; activity, negative = inhibition: at the top concentration
# Outline: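 Steps: dispense K18 P301L tau (15 uM plus 0.24 uM Alexa 594 tracer, final) in pH 7 sodium acetate; add compound; add heparin (20 uM final); incubate 6 hr, 37 C; add ThT (30 uM final); after 1 hr ambient, read FP.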
# % is set by controls: 0 for no effect and ±100 for the full control effect; potency is the fitted concentration of half-maximal effect; tags give direction and shape of the fitted curve.
# UniProt P10636, sequence (P10636 whole entry, looked up): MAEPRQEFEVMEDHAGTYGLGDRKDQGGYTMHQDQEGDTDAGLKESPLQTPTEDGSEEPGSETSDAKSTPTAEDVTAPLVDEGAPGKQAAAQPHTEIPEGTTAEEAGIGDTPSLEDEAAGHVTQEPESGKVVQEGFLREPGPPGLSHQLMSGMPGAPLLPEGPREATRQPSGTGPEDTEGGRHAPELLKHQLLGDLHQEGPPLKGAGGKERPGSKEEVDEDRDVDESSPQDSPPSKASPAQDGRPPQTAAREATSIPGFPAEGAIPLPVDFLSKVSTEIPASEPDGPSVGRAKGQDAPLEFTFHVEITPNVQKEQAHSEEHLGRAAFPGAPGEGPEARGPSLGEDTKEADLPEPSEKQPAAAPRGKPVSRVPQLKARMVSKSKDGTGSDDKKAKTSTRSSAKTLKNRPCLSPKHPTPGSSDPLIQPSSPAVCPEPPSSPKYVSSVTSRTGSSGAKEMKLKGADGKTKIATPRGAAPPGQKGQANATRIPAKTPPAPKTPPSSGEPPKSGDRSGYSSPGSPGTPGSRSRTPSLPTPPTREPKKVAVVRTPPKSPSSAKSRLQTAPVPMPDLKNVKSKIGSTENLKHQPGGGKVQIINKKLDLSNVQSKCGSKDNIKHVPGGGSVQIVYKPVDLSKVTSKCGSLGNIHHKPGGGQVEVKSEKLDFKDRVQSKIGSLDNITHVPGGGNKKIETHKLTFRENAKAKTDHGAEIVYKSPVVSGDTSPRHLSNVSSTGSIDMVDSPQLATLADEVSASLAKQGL
SMILES,"activity, negative = inhibition",Potency
CCOC(=O)CSc1nc2ccccc2n2cnnc12,inactive: 7.19%,
COc1cccc(NC(=O)Nc2cccc(-c3cn4cccnc4n3)c2)c1,,"inconclusive [inhibitor, single point]"
O=S(=O)(Nc1nc2ccccc2nc1Nc1ccc2c(c1)OCCO2)c1cccs1,inactive: 14.7%,
CCOC(=O)c1c(NC(=O)C(Sc2ccccc2)c2ccccc2)sc(C(=O)N(C)C)c1C (stereo not given),,"inconclusive [activator, single point]"
Cc1cc(-c2csc(NC(=O)c3ccc(=O)[nH]c3)n2)c(C)n1Cc1ccco1,,"inconclusive [inhibitor, full curve]"
CCOC(=O)c1c(S(=O)(=O)N2CCCC(C(=O)Nc3cccc(Cl)c3)C2)c(C)n(C)c1C (stereo not given),inactive: 5.28%,
CC1CCN(c2cc(N3CCC(C)CC3)c([N+](=O)[O-])cc2/C=C(\C#N)c2nn(-c3ccccc3)c(N)c2C#N)CC1,,"inconclusive [inhibitor, partial curve]"
CCN1CCN(c2cc(C)c3cc(NC(=S)N4CCCCC4)ccc3n2)CC1,inactive: 2.32%,
Cc1[nH][nH]c(=O)c1C(c1ccc(-c2ccc(Cl)cc2Cl)o1)c1c(C)[nH][nH]c1=O,,"inconclusive [inhibitor, partial curve]"
Cc1cc(N2CCCCC2)nc2ccc(NC(=O)c3cccc(Cl)c3)cc12,,"inconclusive [activator, single point]"
COc1cccc(CNC(=O)c2cc3c(s2)-c2ccccc2OC3)c1,,"inconclusive [inhibitor, partial curve]"
O=C(COC(=O)/C=C/c1ccc(F)cc1)NCc1ccco1,inactive: 7.79%,
Cn1c(=O)[nH]c(=O)c2c1nc([N+](=O)[O-])n2Cc1ccccc1,,"inconclusive [inhibitor, single point]"
COc1ccccc1-c1nnc(SCC(=O)c2ccc(Cl)cc2)n1-c1ccccc1,inactive: -4.66%,
C/C(=N\Nc1ccc2nncn2n1)c1ccccn1,inactive: -2.12%,
Cc1ccc(NC(=S)Nc2ccc3cn[nH]c3c2)cc1C,inactive: 2.77%,
CSc1cccc(NC(=O)CN2C(=O)COc3ccc(Cl)cc32)c1,,"inconclusive [inhibitor, single point]"
CCCn1c(/C=N/Nc2nc3ccccc3[nH]2)nc2ccccc21,,"inconclusive [activator, full curve, poor fit]"
Cc1nn(-c2ccccc2)c2c1C1(C(=O)N3c4c(cccc41)C(C)CC3(C)C)C(C#N)=C(N)O2 (stereo not given),,"inconclusive [inhibitor, single point]"
O=C(NCC1CCN(Cc2cccc(Cl)c2)CC1)Nc1cc(Cl)ccc1Cl,,"inconclusive [inhibitor, single point]"
Cc1cccc(/C=C2\CS/C(=C\c3cccc(C)c3)C2=O)c1,inactive: -2.9%,
COc1ccc(-c2noc(COc3ccc4c(c3)OCO4)n2)cc1OC,inactive: 0.904%,
Cc1ccc(N(CCCCN2C(=O)c3ccccc3C2=O)C(=O)c2cccc([N+](=O)[O-])c2)cc1,inactive: 3%,
O=C1C2=CC[C@@H]3C(=O)N(c4ccc(F)cc4F)C(=O)[C@H]3[C@H]2[C@H](O)[C@H]2O[C@H]12,,"inconclusive [inhibitor, partial curve]"

SMILES,"activity, negative = inhibition",Potency
CCOC(=O)c1sc(S(C)=O)c2c1CCc1conc1-2 (stereo not given),,"inconclusive [inhibitor, single point]"
O=C(CNC(=O)c1ccc(Cl)cc1Cl)NCCCn1ccnc1,,"inconclusive [activator, single point]"
C=CCn1c(SCC(=O)OC)nc2sc3c(c2c1=O)CCN(C)C3,,"inconclusive [inhibitor, partial curve]"
COC(=O)CSc1nc(NCC(C)C)nc(N2CCOCC2)n1,inactive: 4.6%,
Cc1ccc(CSc2nnc(-c3ccc(NS(=O)(=O)c4ccccc4)cc3)o2)cc1,,"inconclusive [inhibitor, partial curve, poor fit]"
Fc1ccc(-c2cc(-c3ccccc3)c3c(n2)-c2cc(F)ccc2OC3)cc1,,"inconclusive [inhibitor, single point]"
Cn1c(N)c(C(=O)COC(=O)CCOc2ccc(C(C)(C)C)cc2)c(=O)n(C)c1=O,,"inconclusive [inhibitor, partial curve, poor fit]"
CC1CCN(S(=O)(=O)c2cc3c4c(c2)CC(=O)N4CCC3)CC1,,"inconclusive [inhibitor, single point]"
COc1cc(C(=O)Nc2ccc(S(=O)(=O)N(C)c3ccccc3)cc2)cc(OC)c1OC,,"inconclusive [inhibitor, full curve]"
S=C(c1ccc(-c2cc(Cl)ccc2Cl)o1)N1CCOCC1,inactive: -1.32%,
CN(C)/C=C(/C#N)C(=O)c1cccc(Oc2ccc(C(C)(C)C)cc2)c1,,"inconclusive [activator, partial curve]"
N#Cc1cccc(-c2cn(S(=O)(=O)c3ccc(Cl)cc3)nc2N)c1,,"inconclusive [inhibitor, single point]"
COCc1cc(C)nc(SCC(=O)Nc2cccc(C)c2C)c1C#N,,"inconclusive [inhibitor, single point]"
Cc1cc(C)cc(NC(=O)CSc2oc(-c3cccs3)nc2S(=O)(=O)c2ccccc2)c1,,"inconclusive [inhibitor, partial curve]"
COc1ccccc1CNc1nc(-c2ccc(N(C)C)cc2)nc2ccccc12,,"inconclusive [inhibitor, partial curve]"
CC(=O)Nc1cccc(Oc2ncnc3scc(-c4ccc(C)cc4)c23)c1,,"inconclusive [inhibitor, partial curve, poor fit]"
Cc1oc(/N=C/c2ccc(Cl)cc2Cl)c(C#N)c1C,,"inconclusive [inhibitor, single point]"
O=C(CSc1n[nH]c(-c2ccncc2)n1)Nc1ccccn1,inactive: -4.76%,
CCOC(=O)c1ccc(NC(=O)CCc2nc(-c3ccccc3Cl)no2)cc1,,"inconclusive [inhibitor, partial curve]"
COc1cc(-c2ccno2)ccc1S(=O)(=O)N1CCN(c2ccccc2F)CC1,,"inconclusive [inhibitor, full curve, poor fit]"
CCCCCCCOC(=O)c1nc(Cl)c(Cl)c(N)c1Cl,,"inconclusive [inhibitor, single point]"
Cc1cc(C)n(CC(O)CN2c3ccccc3Sc3ccccc32)n1 (stereo not given),,"inconclusive [activator, single point]"
CCc1ccccc1NC(=O)Nc1cccc(F)c1,,"inconclusive [inhibitor, single point]"
O=C(NNS(=O)(=O)Cc1ccccc1)c1ccc([N+](=O)[O-])cc1,,"inconclusive [inhibitor, single point]"

SMILES,"activity, negative = inhibition",Potency
NC(=O)C(=CNc1nc(-c2ccc(Cl)c(Cl)c2)cs1)C(N)=O,inactive: -9.02%,
CCCCN(C(=O)CSc1cc(C)c2ccc(OC)cc2n1)c1c(N)n(Cc2ccccc2)c(=O)[nH]c1=O,,"inconclusive [inhibitor, single point]"
O=C(O)Cc1sc(Nc2ccccc2Cl)nc1-c1ccccc1,inactive: 6.15%,
CCOC(=O)c1c(NC(=O)Cc2coc3cc(C)ccc23)sc2c1CCCC2,inactive: -4.11%,
COc1ccc(N/N=C(/C#N)S(=O)(=O)C(C)(C)C)cc1,inactive: 0.128%,
COc1ccc(/C=N/Nc2ncnc(Cl)c2N)cc1OC,,"inconclusive [activator, single point]"
COc1cc(C2c3c(oc4ccccc4c3=O)C(=O)N2c2nncs2)cc(OC)c1OC (stereo not given),inactive: -8.53%,
O=C(N1CCOCC1)N1CCC(NC(=O)C23CC4CC(CC(C4)C2)C3)CC1,inactive: -9.99%,
COC(=O)C1=C(C)N(c2cc(Cl)cc(Cl)c2)C(=O)C1,inactive: 0.456%,
O=C1CC(SC(=NCc2ccc3c(c2)OCO3)Nc2ccccc2)C(=O)N1c1ccccc1 (stereo not given),,"inconclusive [inhibitor, partial curve]"
Nc1nc(NCC2CCC(CNS(=O)(=O)c3cccc4ccccc34)CC2)nc2ccccc12 (stereo not given),,"inconclusive [inhibitor, partial curve]"
Cc1ccc([C@H]2C(C#N)=C(N)Oc3cc(C)oc(=O)c32)o1,inactive: -6.34%,
CCc1nnc(SCc2ccc(OC)c(Br)c2)n1N,inactive: 1.42%,
Cc1nccc(-c2cccc(NC(=O)Nc3ccc(Cl)cc3)c2)n1,,"inconclusive [inhibitor, partial curve]"
O=[N+]([O-])c1ccc(OCC(O)CN2CCN(c3ccccc3F)CC2)cc1 (stereo not given),inactive: -4.89%,
CCCOc1cccc(-c2cc(-c3n[nH]c(=S)n3CC)c3ccccc3n2)c1,inactive: 0.986%,
O=C(Nc1ccc(N2CCOCC2)c(S(=O)(=O)Nc2ccc(Cl)cc2)c1)c1cnccn1,,"inconclusive [inhibitor, single point]"
COc1ccc(S(=O)(=O)NCc2c(-c3ccccc3)noc2C)c(OC)c1,inactive: -6.58%,
Cc1ccc(C)c(N2CCN(c3cc(C)nc4c(-c5ccc(Cl)cc5)c(C)nn34)CC2)c1,inactive: -5.41%,
CCc1ccccc1NCC(=O)Nc1ccc(Cl)c(C(F)(F)F)c1,,"inconclusive [activator, full curve, poor fit]"
Cc1ccccc1NC(=O)Cc1nc(-c2ccc3ccccc3c2)cs1,,"inconclusive [inhibitor, single point]"
O=C1CC(c2ccccc2Cl)=NN(c2ncnc3ccccc23)C1=O,inactive: 3.13%,
